This is an account of results in publication PMC3726058 (European journal of pharmacology, 2010).

The target of this assay is σ1 receptor (Rattus norvegicus, UniProt Q9R0C9). Kind of assay: SN56 competition versus [^3H]. The assay is classed as binding.

pKi: −log10 of the molar value.

As usually defined, the pKi is the Ki on a negative log10 scale, so that one unit is a factor of ten. A low value points to a high Ki.

Sequence of UniProt Q9R0C9 (Q9R0C9 whole entry): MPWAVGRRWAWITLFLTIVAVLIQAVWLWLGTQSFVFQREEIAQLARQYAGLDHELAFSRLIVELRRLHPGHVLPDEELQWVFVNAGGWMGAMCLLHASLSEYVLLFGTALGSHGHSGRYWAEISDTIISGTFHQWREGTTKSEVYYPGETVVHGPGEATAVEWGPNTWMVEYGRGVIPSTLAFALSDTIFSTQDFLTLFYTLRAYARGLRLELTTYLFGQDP

For the compound `CCCc1ccc2c(c1)sc(=O)n2CCN1CCCCCC1` [SN56, 3-(2-(azepan-1-yl)ethyl)-6-propylbenzo[d]thiazol-2(3H)-one], the negative logarithm of the Ki (pKi) is 9.42.
